Measurements published in PubChem BioAssay AID1508642 (National Center for Advancing Translational Sciences (NCATS), 2021).
Among all 43,000 compounds or so, about 200 (0.47%) were called active. About 12% were inconclusive and are not listed. Calls come from the whole dose curve; as a rule, active = well fitted cell-killing curve with a large enough effect; inconclusive = small, poorly fitted or top-dose-only effect, or effect the other way; inactive = flat fitted curve, though single readings scatter. The list shows a part of the results.

Experiment: Cell viability qHTS assay in S16 Pmp22-F2sN cells; note: nearly all actives have a fitted effect of over 65% in size
Settings: S16 Pmp22-F2sN Schwann cells (luciferase reporters placed in the Pmp22 gene) viability, CellTiter-Glo, 24 h; series mostly up to 57.5 µM; activity change, negative = cytotoxicity: at the top concentration
Procedure, shortened: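 S16 Schwann cells carrying the Pmp22-F2sN reporter, seeded in 1536-well format, were exposed to library compounds for 24 h at 37C. Viability was read as CellTiter-Glo luminescence after 15 min at room temperature.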
% is set by controls: 0 for no effect and ±100 for the full control effect.

Compound	activity change, negative = cytotoxicity
COc1ccc(CCNC(=O)CSc2nnnn2-c2cccc(C(C)=O)c2)cc1OC	inactive: 1.32%
O=C(C1CC1)N1CCN(c2nc3c(Cl)cccc3s2)CC1	inactive: -6.84%
Fc1ccc(Cc2cn3cc(-c4ccccc4)nc3s2)cc1	inactive: 14.7%
CCOC(=O)c1ccc(NC(=O)c2csnn2)cc1	inactive: 0.119%
CCOC(=O)c1cccc(NC(=O)CCC(=O)N2CC(C)Oc3ccc(C)cc32)c1 (stereo not drawn)	inactive: -5.73%
Cc1ccccc1-c1noc(-c2cccnc2N(C)Cc2ccc(Cl)cc2)n1	inactive: 1.65%
O=C(Cn1c(=O)nc(-c2ccccc2)c2ccccc21)NCc1ccc(F)cc1	inactive: 7.44%
Cc1cccc(NC2=CC(c3cccc(Br)c3)N(c3cccc(C)c3)C2=O)c1 (stereo not drawn)	inactive: 2.57%
CCOC(=O)c1c(C)[nH]c(C)c1S(=O)(=O)NCC(=O)N1CCN(c2cccc(C)c2)C(C)C1 (stereo not drawn)	inactive: 1.17%
Cc1cc(O)c(C(c2ccccc2)N2CCN(C)CC2)c(=O)n1Cc1ccco1 (stereo not drawn)	inactive: 13.6%
O=C(Nc1ccccc1)N(Cc1ccc(F)cc1)c1ccccn1	inactive: 11.9%
C=Cc1ccc(CN2C(=O)c3ccccc3Sc3ccc(C(=O)OCc4ccco4)cc32)cc1	inactive: 9.73%
COc1ccc(-c2noc(CN(C(C)C)S(=O)(=O)c3ccc(Br)cc3)n2)cc1	inactive: 2.23%
CC1=C(C(=O)N2CCN(c3cccc(C)c3C)CC2)C2(CCCCC2)OC1=O	inactive: -0.331%
Cc1ccc2c(c1)c1c(c(=O)n(Cc3ccccc3)c(=O)n1CC(=O)NCc1ccccc1Cl)n2C	inactive: -0.14%
O=S(=O)(c1ccc2c(c1)CCN2)N1CCCCCC1	inactive: -14%
CCC(C)OC(=O)/C(C#N)=C\c1ccc(-c2cccc(C(F)(F)F)c2)o1 (stereo not drawn)	inactive: -3.93%
Cc1cccc(C)c1Nc1nc2ccccc2nc1NS(=O)(=O)c1ccccc1	inactive: -4.07%
CCc1ccc(NCc2cc3cc(OC)c(OC)cc3n(CC(=O)Nc3cc(C)ccc3C)c2=O)cc1	inactive: 8.45%
CN(C(=O)CN1C(=O)CCSc2ccc(S(=O)(=O)N3CCCC3)cc21)c1ccccc1	inactive: 12.8%
COc1ccc(-c2noc(CSc3nnc(-c4ccncc4)n3-c3ccc(C)cc3)n2)cc1	inactive: -23%
CCc1ccc(Sc2cc(C(=O)NC(C)CC)c3ccccc3n2)cc1 (stereo not drawn)	inactive: -6.04%
COc1cccc(NC(=O)c2cnn(-c3ccccc3)c2-n2cccc2)c1	inactive: 7.37%
CCOc1ccc(OCC(=O)Nc2nnc3n2CCS3)cc1	inactive: 7.93%

Compound	activity change, negative = cytotoxicity
COc1ccccc1-n1c(/C=C/c2c(C)n(C)c3ccccc23)nc2ccccc2c1=O	inactive: 5.17%
CCOC(=O)C(Cc1c[nH]c2ccccc12)NC(=O)COc1ccc(Cl)c(C)c1 (stereo not drawn)	inactive: 2.98%
COc1cccc(CNC(=O)C2CCC(CNS(=O)(=O)c3ccc(Br)s3)CC2)c1 (stereo not drawn)	inactive: -1.95%
CCOc1nc(NC(=O)NS(=O)(=O)Oc2ccccc2)nc(-c2ccccc2)n1	inactive: 1.61%
CCOc1ccc(Sc2cc(C(=O)NCCc3ccccc3)c3ccccc3n2)cc1	inactive: 0.653%
COc1ccccc1CNc1ccc(-c2nc(-c3ccncc3)no2)cc1[N+](=O)[O-]	inactive: 5.05%
COc1ccc(CNC(=O)CC(c2ccc(OC)c(OC)c2)N2Cc3ccccc3C2=O)cc1 (stereo not drawn)	inactive: 3.52%
CCOc1ccc(NC(=O)CSC2=Nc3ccccc3C3=NC(CC(=O)NCc4ccco4)C(=O)N23)cc1 (stereo not drawn)	inactive: 6.67%
Cc1cc2ccccc2n1CCNC(=O)c1cccc(Cl)c1	inactive: 13.7%
CCOC(=O)c1sc2ncn(CC(=O)Nc3ccc(C)cc3Br)c(=O)c2c1C	inactive: -0.795%
Cc1ccc(N(CC(=O)Nc2ccc(C)c(F)c2)S(=O)(=O)c2c(C)n[nH]c2C)cc1	inactive: -2.99%
COc1ccc(C)cc1NC(=O)Cn1c(=O)ccc2cc(S(=O)(=O)N3CCCC3)ccc21	inactive: 2.94%
CSc1cccc(NC(=O)N2CCN(c3cc(-c4noc(C)n4)ccc3C)CC2)c1	inactive: 1.1%
CCOc1ccc(NC(=O)CSc2cn(CC(=O)N3CCCCCC3)c3ccccc23)cc1	inactive: -0.741%
CCOC(=O)c1c(C)[nH]c(C)c1S(=O)(=O)N1CCCC(C(=O)Nc2ccc(F)cc2F)C1 (stereo not drawn)	inactive: 16.8%
O=C(NC1CCCCCC1)c1ccc2c(c1)sc1nc(-c3ccccc3)cn12	inactive: 5.5%
COc1cc(C2CC(=O)N(c3ccccc3)C3=C2C(=O)OC3)cc(OC)c1OC (stereo not drawn)	inactive: -0.932%
CCN1CCN(c2ncnc3c2cnn3-c2ccc(C)cc2)CC1	inactive: 6.17%
C=C(C)CSc1nc2sc3c(c2c(=O)n1-c1ccccc1)CCC(C)C3 (stereo not drawn)	inactive: 6.95%
CCc1cccc2c(-c3ccc(F)cc3)nc(SCC(=O)Nc3ccccc3)nc12	inactive: 8.49%
COc1ccc(C(=O)Nc2ccc(-c3cc4ccccc4oc3=O)c(C)c2)cc1OC	inactive: -2.84%
COc1ccc(CCNC(=O)c2ccc(CS(=O)(=O)Cc3cccc(C)c3)o2)cc1OC	inactive: -8.88%
CCN1CCN(C(c2ccc(F)cc2)c2c(O)cc(C)n(CCOC)c2=O)CC1 (stereo not drawn)	inactive: 6.2%
CCc1ccc(OCCCn2c(-c3ccc(Cl)cc3)nc3ccccc3c2=O)cc1	inactive: -0.707%
